Sequences and labels used below:
B1: PhoQ; a variant is named by its letters at X, in order, P23837 (parent)
chain: MKKLLRLFFPLSLRVRFLLATAAVVLVLSLAYGMVALIGYSVSFDKTTFRLLRGESNLFYTLAKWENNKLHVELPENIDKQSPTMTLIYDENGQLLWAQRDVPWLMKMIQPDWLKSNGFHEIEADVNDTSLLLSGDHSIQQQLQEVREDDDDAEMTHSVAVNVYPATSRMPKLTIVVVDTIPVELKSSYMVWSWFIYVLSANLLLVIPLLWVAAWWSLRPIEALAKEVRELEEHNRELLNPATTRELTSLVRNLNRLLKSERERYDKYRTTLTDLTHSLKTPLXXLQXXLRSLRSEKMSVSDAEPVMLEQISRISQQIGYYLHRASMRGGTLLSRELHPVAPLLDNLTSALNKVYQRKGVNISLDISPEISFVGEQNDFVEVMGNVLDNACKYCLEFVEISARQTDEHLYIVVEDDGPGIPLSKREVIFDRGQRVDTLRPGQGVGLAVAREITEQYEGKIVAGESMLGGARMEVIFGRQHSAPKDE

The list shows a part of the results.

The variants in this experiment derive from B1. The experiment in a line: enrichment ratio after two sorts for PhoP signalling (ratio (wild type AVST 3.29)); higher = more functional. To be noted: with PhoP (E. coli).
For PLNS, the enrichment ratio is not above 0.25.
Next, FKYL: not above 0.25; GVSV: not above 0.25.
Next, DSEV: not above 0.25.
On to QRWS, for which the enrichment ratio is not above 0.25.
Next, VQTA: not above 0.25; KYNE: not above 0.25.
Next, MIIA: not above 0.25.
Next, TQGF: 4.68; QLQS: not above 0.25; KDTR: not above 0.25.
Turning to KRMH, the enrichment ratio was not above 0.25.
For VWSL, the enrichment ratio is not above 0.25.
Then NTMR, with not above 0.25.
Consider VHMK, for which the enrichment ratio was not above 0.25.
Then FKRF, with not above 0.25; and TWCL, with not above 0.25.
KDSN: the enrichment ratio is not above 0.25.
As for WWIQ, the enrichment ratio was not above 0.25.
On to AKDF, for which the enrichment ratio was not above 0.25.
On to ASPI, for which the enrichment ratio worked out at 6.68.
Turning to DATS, the enrichment ratio was not above 0.25.
Next, KPNW: not above 0.25; RMNW: not above 0.25; HRTK: not above 0.25.
Next, TFNN: 4.5; IWER: not above 0.25.
As to YSAT, the enrichment ratio is not above 0.25.
Then SKCR, with not above 0.25; and SMQV, with not above 0.25; and FTTT, with not above 0.25.
As for GGIP, the enrichment ratio is not above 0.25.
Turning to PNSE, the enrichment ratio was not above 0.25.
Next, NEYL: not above 0.25; SDMT: 5.7; PMRI: not above 0.25.
Next, MKVK: not above 0.25.
Then SCVK, with 1.24; and SVCV, with 8.55.
With YSLC, the enrichment ratio amounted to 7.9.
For the variant NAEA, the enrichment ratio is not above 0.25.
DFTW: the enrichment ratio is not above 0.25.
Then PQEL, with not above 0.25; and LACW, with not above 0.25.
DHAD: the enrichment ratio is not above 0.25.
Then KITF, with not above 0.25.
Turning to PFCE, the enrichment ratio was not above 0.25.
For VQDA, the enrichment ratio was not above 0.25.
Regarding FCDF, the enrichment ratio was not above 0.25.
With LDVV, the enrichment ratio was not above 0.25.
In the case of GVDP, the enrichment ratio is not above 0.25.
Next, RNWH: not above 0.25; VSGA: not above 0.25; PIDY: not above 0.25.
For the variant HLLS, the enrichment ratio was not above 0.25.
Then EGYN, with not above 0.25.
Then KCPY, with not above 0.25; and YSWF, with not above 0.25.
In the case of YGPT, the enrichment ratio is not above 0.25.
Consider TWHS, for which the enrichment ratio was not above 0.25.
In the case of EWHG, the enrichment ratio was not above 0.25.
Consider MAVW, for which the enrichment ratio was not above 0.25.
In the case of RVHP, the enrichment ratio is not above 0.25.
In the case of DHEY, the enrichment ratio is not above 0.25.
Next, QVAY: not above 0.25.
Next, VNVY: not above 0.25; DSSV: not above 0.25.
IEYD: the enrichment ratio is not above 0.25.
With HDYV, the enrichment ratio was not above 0.25.
For SWWM, the enrichment ratio was not above 0.25.
Take IAER: the enrichment ratio is not above 0.25.
Then RATH, with not above 0.25; and NNEF, with not above 0.25.
Take YKTQ: the enrichment ratio is not above 0.25.
For DRMA, the enrichment ratio was not above 0.25.
For the variant WMIC, the enrichment ratio was not above 0.25.
For the variant NLCM, the enrichment ratio is not above 0.25.
Next, IVNF: not above 0.25; RFPV: not above 0.25.
Then WHHY, with not above 0.25; and QIYY, with not above 0.25.
Take GQYR: the enrichment ratio was not above 0.25.
Consider GEKF, for which the enrichment ratio was not above 0.25.
On to HSGT, for which the enrichment ratio was not above 0.25.
Take WNPR: the enrichment ratio was not above 0.25.
As to LFGQ, the enrichment ratio was not above 0.25.
Next, GISG: 8.5.
Consider DSMP, for which the enrichment ratio is not above 0.25.
On to GCCT, for which the enrichment ratio was not above 0.25.
Then DMTA, with not above 0.25; and QSVG, with not above 0.25; and KDAS, with not above 0.25.
Then SPED, with not above 0.25; and RLHA, with not above 0.25.
For YVPG, the enrichment ratio is not above 0.25.
Next, NQFA: not above 0.25.
Take SQAT: the enrichment ratio was determined as 12.5.
Then RLAW, with not above 0.25; and PIQF, with not above 0.25.
Next, SVKG: not above 0.25; YPTW: not above 0.25; IFKE: not above 0.25.
Then ESHQ, with not above 0.25; and RHWF, with not above 0.25.
Take MGWE: the enrichment ratio was not above 0.25.
Consider NNSN, for which the enrichment ratio is not above 0.25.
Next, RLDF: not above 0.25.
Take HWFY: the enrichment ratio is not above 0.25.
For the variant WHGA, the enrichment ratio is not above 0.25.
Next, FYAC: not above 0.25; WQLI: not above 0.25; LQDT: not above 0.25.
Take HNKP: the enrichment ratio was not above 0.25.
WRNM: the enrichment ratio is not above 0.25.
Next, QFGP: not above 0.25; TGFH: 1.18; VWFR: not above 0.25.
On to PRDA, for which the enrichment ratio is not above 0.25.
For the variant QHRY, the enrichment ratio is not above 0.25.
Next, SRPG: not above 0.25; LLMK: 1.04; IPTM: not above 0.25.
In the case of KLNC, the enrichment ratio was not above 0.25.
Take NICK: the enrichment ratio stood at 14.4.
Next, KCRC: not above 0.25.
Next, GNTY: not above 0.25; TQTD: not above 0.25; AKRY: not above 0.25.
Regarding YTLN, the enrichment ratio stood at 8.58.
Next, RICV: not above 0.25.
Next, FCQL: not above 0.25; MENV: not above 0.25; NETT: not above 0.25.
Next, FGMN: not above 0.25.
Consider VNQG, for which the enrichment ratio was not above 0.25.
With EVCK, the enrichment ratio is not above 0.25.
Turning to NICT, the enrichment ratio is not above 0.25.
Next, NAYT: not above 0.25; YGVL: 0.495; DCLI: not above 0.25.
For AHHW, the enrichment ratio was not above 0.25.
Then LCAQ, with not above 0.25.
TRKM: the enrichment ratio was not above 0.25.
Then SWTL, with not above 0.25; and NGIQ, with not above 0.25.
Next, IMWD: not above 0.25; FCRA: not above 0.25.
Next, ESPQ: not above 0.25; KFYP: not above 0.25; AWDI: not above 0.25.
As to NFQF, the enrichment ratio was not above 0.25.
Then QQMK, with not above 0.25; and TNPE, with not above 0.25.
Then WIQP, with not above 0.25; and INTN, with not above 0.25.
Regarding APLW, the enrichment ratio was not above 0.25.
Then NWFR, with not above 0.25.
As for YVPE, the enrichment ratio was not above 0.25.
Then YTCW, with not above 0.25; and DIEI, with not above 0.25.
As for PHTR, the enrichment ratio was not above 0.25.
Then GEII, with 8.8; and HGTF, with not above 0.25; and YQKN, with not above 0.25.
For the variant LDLG, the enrichment ratio is not above 0.25.
As for TNRF, the enrichment ratio was not above 0.25.
As for TRKW, the enrichment ratio is not above 0.25.
Next, SLTQ: 6.15; RRSC: not above 0.25; LSLI: 5.01.
Next, YKKV: not above 0.25.
Then FEGV, with not above 0.25.
With VMIT, the enrichment ratio was not above 0.25.
Next, QEED: not above 0.25; YLIP: not above 0.25.
For WFMI, the enrichment ratio is not above 0.25.
Then PWYP, with not above 0.25; and DLQL, with not above 0.25.
In the case of LYAR, the enrichment ratio was not above 0.25.
As to NEMY, the enrichment ratio was not above 0.25.
Then STRF, with not above 0.25; and VTLG, with 3.9.
As for LWTY, the enrichment ratio was not above 0.25.
Then TVER, with 2.91; and LRTK, with not above 0.25; and MRDG, with not above 0.25.
Consider REVT, for which the enrichment ratio is not above 0.25.
Next, NTRI: not above 0.25.
As for YCRD, the enrichment ratio is not above 0.25.
For the variant YQRL, the enrichment ratio is not above 0.25.
With MLGK, the enrichment ratio is not above 0.25.
As to ESIH, the enrichment ratio was not above 0.25.
Then VISR, with not above 0.25; and SAFD, with not above 0.25; and TNVM, with not above 0.25.

Source of the values: a collection of fitness landscapes (doi:10.1126/science.1257360).
